Data on 2 compounds can be found in article PMC6961345 (Antiviral Chemistry & Chemotherapy, 2018).

This test relates to influenza A/Brisbane/59/2007 (H1N1) virus. The test can be described thus: Time-of-addition experiment in dNHBE cells. The class given is cell-based.

Molecules are shown by their SMILES.

`CCC(CC)O[C@@H]1C=C(C(=O)O)C[C@H](N)[C@H]1NC(C)=O` [oseltamivir carboxylate]: the “dose dependence of reduction of influenza A(H1N1) virus titers” value was “dose dependent”.
The value for `C[n+]1ccc(C(=O)NCc2ccccc2)cc1` [enisamium, N-methyl-4-benzylcarbamidopyridinium] was “dose dependent”.
